Article PMC10400574
No constants are given. Whether binding was seen depends on the method and setting. In cells and extracts the contact can be indirect. Some results given as binding are weak or reduced against the parent protein; the word gives no strength. For part of these data: Tags and fused reporters may be left off the sequences shown. Values belong to the molecule of their own block, whether it stands above or below them.

By UniProt entry, the sequences of proteins in these tests, tags left out.
UniProt Q9HCE7: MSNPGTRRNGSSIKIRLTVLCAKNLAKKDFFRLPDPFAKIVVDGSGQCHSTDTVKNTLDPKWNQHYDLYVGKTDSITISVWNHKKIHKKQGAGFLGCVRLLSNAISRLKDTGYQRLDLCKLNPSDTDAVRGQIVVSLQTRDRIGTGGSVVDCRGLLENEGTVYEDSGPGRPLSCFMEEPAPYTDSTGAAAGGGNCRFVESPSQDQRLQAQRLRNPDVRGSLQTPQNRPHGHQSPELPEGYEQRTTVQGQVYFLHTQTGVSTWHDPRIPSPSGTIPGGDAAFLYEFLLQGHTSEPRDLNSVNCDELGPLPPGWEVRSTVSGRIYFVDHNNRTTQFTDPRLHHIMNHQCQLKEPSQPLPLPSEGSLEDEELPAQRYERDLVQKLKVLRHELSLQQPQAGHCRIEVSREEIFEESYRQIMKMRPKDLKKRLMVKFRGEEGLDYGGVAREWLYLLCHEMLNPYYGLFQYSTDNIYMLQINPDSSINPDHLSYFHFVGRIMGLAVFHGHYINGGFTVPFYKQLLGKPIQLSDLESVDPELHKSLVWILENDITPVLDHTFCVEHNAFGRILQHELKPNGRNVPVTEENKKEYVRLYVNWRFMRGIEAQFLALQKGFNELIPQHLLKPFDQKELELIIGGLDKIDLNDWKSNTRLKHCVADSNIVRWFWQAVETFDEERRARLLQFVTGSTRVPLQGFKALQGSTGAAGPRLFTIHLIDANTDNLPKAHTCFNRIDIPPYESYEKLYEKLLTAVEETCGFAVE
UniProt Q9HAU4: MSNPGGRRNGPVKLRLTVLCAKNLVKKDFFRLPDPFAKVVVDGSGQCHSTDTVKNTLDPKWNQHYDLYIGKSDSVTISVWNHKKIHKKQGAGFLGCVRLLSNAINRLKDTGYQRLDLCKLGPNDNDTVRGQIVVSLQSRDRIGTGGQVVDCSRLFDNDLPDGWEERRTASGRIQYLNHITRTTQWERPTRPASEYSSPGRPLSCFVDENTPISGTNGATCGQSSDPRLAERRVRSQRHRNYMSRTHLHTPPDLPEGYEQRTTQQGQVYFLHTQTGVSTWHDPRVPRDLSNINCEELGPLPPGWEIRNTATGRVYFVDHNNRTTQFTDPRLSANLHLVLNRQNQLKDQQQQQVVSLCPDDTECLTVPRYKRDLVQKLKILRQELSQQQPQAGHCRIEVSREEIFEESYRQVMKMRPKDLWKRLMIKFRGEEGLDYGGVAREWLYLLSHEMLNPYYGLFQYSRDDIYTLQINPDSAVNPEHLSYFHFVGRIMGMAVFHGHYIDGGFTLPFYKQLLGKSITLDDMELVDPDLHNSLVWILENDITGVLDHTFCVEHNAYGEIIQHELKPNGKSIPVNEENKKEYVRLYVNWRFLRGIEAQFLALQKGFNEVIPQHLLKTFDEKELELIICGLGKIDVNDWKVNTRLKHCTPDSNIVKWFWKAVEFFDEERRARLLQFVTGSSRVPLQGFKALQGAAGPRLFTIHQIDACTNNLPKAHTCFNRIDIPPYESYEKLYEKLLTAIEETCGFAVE

Legend:
[1] = target: T1, RNF220, wild-type, full-length, Flag-tagged (mouse) (UniProt Q6PDX6); test: co-IP; extracts of HEK293 cells stably transfected with RNF220-Flag; anti-Flag beads; endogenous Smurf1 or Smurf2 detected with anti-Smurf1 or anti-Smurf2; IgG as negative control
T1 sequence: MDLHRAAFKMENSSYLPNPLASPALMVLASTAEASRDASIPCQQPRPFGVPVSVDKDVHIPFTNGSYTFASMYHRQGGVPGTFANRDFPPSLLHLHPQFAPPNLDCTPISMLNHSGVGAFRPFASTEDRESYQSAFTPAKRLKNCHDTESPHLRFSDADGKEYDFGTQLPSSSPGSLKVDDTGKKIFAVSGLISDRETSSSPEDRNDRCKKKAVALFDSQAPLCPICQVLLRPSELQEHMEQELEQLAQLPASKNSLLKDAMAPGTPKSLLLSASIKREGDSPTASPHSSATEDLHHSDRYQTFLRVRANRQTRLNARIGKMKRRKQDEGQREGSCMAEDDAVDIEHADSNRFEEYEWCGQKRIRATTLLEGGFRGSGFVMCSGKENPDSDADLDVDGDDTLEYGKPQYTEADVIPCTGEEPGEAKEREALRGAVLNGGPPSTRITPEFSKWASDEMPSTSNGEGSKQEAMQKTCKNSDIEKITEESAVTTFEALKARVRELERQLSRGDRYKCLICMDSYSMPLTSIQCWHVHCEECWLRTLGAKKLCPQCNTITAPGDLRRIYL

[2] = target: T2, RNF220 S282/286A mutant, full-length (mouse) (UniProt Q6PDX6); test: co-IP; HEK293 cells transiently cotransfected; lysis in 50 mM Tris-HCl pH 7.5, 150 mM NaCl, 1% Triton X-100; lysates incubated with anti-Flag beads, Western blot
T2 sequence: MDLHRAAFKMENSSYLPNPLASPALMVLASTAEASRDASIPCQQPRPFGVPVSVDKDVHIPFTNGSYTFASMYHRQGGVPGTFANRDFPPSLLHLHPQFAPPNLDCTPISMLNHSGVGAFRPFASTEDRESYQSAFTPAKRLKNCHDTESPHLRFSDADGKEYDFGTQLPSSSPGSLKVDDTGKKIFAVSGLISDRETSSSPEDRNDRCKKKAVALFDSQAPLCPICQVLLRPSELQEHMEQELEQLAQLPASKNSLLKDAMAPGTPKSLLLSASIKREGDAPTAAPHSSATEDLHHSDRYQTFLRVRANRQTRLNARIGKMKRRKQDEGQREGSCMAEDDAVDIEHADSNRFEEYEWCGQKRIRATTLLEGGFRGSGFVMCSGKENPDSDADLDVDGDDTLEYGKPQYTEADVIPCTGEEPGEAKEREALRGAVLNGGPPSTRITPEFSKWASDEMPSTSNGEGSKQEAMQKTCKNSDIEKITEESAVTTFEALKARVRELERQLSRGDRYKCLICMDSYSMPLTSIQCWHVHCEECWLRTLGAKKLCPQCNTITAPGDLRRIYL

[3] = target: T3, RNF220 fragment containing the N-terminal 240 amino acids (mouse) (UniProt Q6PDX6); test: as above
T3 sequence: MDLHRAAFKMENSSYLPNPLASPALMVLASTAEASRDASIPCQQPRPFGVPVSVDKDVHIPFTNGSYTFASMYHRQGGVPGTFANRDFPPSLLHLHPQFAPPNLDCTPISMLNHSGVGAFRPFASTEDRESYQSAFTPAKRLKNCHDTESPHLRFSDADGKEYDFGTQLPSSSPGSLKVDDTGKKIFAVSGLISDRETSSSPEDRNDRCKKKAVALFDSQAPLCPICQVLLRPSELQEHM

[4] = target: T4, RNF220 fragment containing the N-terminal 330 amino acids (mouse) (UniProt Q6PDX6); test: as above
T4 sequence: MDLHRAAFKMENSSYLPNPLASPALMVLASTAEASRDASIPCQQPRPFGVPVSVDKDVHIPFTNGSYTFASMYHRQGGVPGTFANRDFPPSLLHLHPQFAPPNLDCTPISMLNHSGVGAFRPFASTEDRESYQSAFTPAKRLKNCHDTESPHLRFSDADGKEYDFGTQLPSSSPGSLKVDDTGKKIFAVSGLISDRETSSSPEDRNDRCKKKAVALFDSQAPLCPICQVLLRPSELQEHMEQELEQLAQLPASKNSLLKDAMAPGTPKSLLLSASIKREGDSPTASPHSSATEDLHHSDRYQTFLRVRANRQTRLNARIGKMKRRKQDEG

[5] = target: T5, RNF220 with the N-terminal 240 amino acids deleted (mouse) (UniProt Q6PDX6); test: as above
T5 sequence: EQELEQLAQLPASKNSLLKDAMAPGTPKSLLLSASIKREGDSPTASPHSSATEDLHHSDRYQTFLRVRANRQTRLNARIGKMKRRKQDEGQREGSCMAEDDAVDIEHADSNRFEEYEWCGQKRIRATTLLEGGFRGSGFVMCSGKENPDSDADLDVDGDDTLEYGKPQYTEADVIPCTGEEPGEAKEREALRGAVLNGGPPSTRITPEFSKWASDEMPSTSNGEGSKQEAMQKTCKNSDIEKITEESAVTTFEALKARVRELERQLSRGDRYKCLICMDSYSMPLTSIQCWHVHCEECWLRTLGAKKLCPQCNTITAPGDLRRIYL

[6] = target: T1, RNF220, wild-type, full-length, Flag-tagged (mouse); test: as above
[7] = target: T6, RNF220 in Daoy and UW228 cells (UniProt Q5VTB9); test: co-IP; in vivo co-IP in Daoy and UW228 cells (Supplementary Fig. 2); bait not told
T6 sequence: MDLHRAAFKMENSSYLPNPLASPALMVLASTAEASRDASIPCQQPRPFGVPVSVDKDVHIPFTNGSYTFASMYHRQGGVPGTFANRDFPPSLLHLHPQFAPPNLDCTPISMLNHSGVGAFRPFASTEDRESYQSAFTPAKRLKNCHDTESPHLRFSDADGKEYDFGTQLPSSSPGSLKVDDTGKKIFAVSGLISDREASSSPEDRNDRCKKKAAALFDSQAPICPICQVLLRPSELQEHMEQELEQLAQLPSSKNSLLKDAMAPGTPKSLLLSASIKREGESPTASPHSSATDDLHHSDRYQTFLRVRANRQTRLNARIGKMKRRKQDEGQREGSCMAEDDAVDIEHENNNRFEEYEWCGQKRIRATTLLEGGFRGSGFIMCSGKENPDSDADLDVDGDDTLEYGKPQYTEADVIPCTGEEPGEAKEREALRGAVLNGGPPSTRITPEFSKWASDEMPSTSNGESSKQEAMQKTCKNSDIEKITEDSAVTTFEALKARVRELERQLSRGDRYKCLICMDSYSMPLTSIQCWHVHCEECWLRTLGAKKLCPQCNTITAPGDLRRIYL

[8] = target: Smurf1, wild-type, transfected, precipitated with anti-Flag beads (human) (UniProt Q9HCE7); test: co-IP; HEK293 cells transiently cotransfected; lysis in 50 mM Tris-HCl pH 7.5, 150 mM NaCl, 1% Triton X-100; lysates incubated with anti-Flag beads, Western blot
[9] = target: Smurf2, wild-type, transfected, precipitated with anti-Flag beads (human) (UniProt Q9HAU4); test: as above
[10] = target: Endogenous Smurf1 (HEK293) (human (endogenous in HEK293)) (UniProt Q9HCE7); test: co-IP; endogenous proteins of HEK293 cell extracts; precipitated with antibody against Smurf1 or Smurf2, RNF220 detected with anti-RNF220; IgG as negative control
[11] = target: Endogenous Smurf2 (HEK293) (human (endogenous in HEK293)) (UniProt Q9HAU4); test: as above

binding [1]: binds
Molecule: Endogenous Smurf1 (HEK293) (from UniProt Q9HCE7 1-757) (enzyme)

binding [2]: no binding | binding [3]: no binding | binding [4]: binds | binding [5]: binds | binding [6]: binds
Molecule: Smurf1, wild-type, transfected (prey of Flag-RNF220) (from UniProt Q9HCE7 1-757) (enzyme)

binding [1]: binds
Molecule: Endogenous Smurf2 (HEK293) (from UniProt Q9HAU4 1-748) (enzyme)

binding [7]: binds
Molecule: Smurf1 in Daoy and UW228 cells (from UniProt Q9HCE7 1-757) (enzyme)

binding [7]: binds
Molecule: Smurf2 in Daoy and UW228 cells (from UniProt Q9HAU4 1-748) (enzyme)

binding [2]: no binding | binding [3]: no binding | binding [4]: binds | binding [5]: binds | binding [6]: binds
Molecule: Smurf2, wild-type, transfected (prey of Flag-RNF220) (from UniProt Q9HAU4 1-748) (enzyme)

binding [8]: binds | binding [9]: binds
B1: RNF220, wild-type, transfected (prey of Flag-tagged Smurf1 or Smurf2) (protein, UniProt Q6PDX6 1-566)
chain: MDLHRAAFKMENSSYLPNPLASPALMVLASTAEASRDASIPCQQPRPFGVPVSVDKDVHIPFTNGSYTFASMYHRQGGVPGTFANRDFPPSLLHLHPQFAPPNLDCTPISMLNHSGVGAFRPFASTEDRESYQSAFTPAKRLKNCHDTESPHLRFSDADGKEYDFGTQLPSSSPGSLKVDDTGKKIFAVSGLISDRETSSSPEDRNDRCKKKAVALFDSQAPLCPICQVLLRPSELQEHMEQELEQLAQLPASKNSLLKDAMAPGTPKSLLLSASIKREGDSPTASPHSSATEDLHHSDRYQTFLRVRANRQTRLNARIGKMKRRKQDEGQREGSCMAEDDAVDIEHADSNRFEEYEWCGQKRIRATTLLEGGFRGSGFVMCSGKENPDSDADLDVDGDDTLEYGKPQYTEADVIPCTGEEPGEAKEREALRGAVLNGGPPSTRITPEFSKWASDEMPSTSNGEGSKQEAMQKTCKNSDIEKITEESAVTTFEALKARVRELERQLSRGDRYKCLICMDSYSMPLTSIQCWHVHCEECWLRTLGAKKLCPQCNTITAPGDLRRIYL

binding [10]: binds | binding [11]: binds
B2: Endogenous RNF220 (HEK293) (protein, UniProt Q5VTB9 1-566)
chain: MDLHRAAFKMENSSYLPNPLASPALMVLASTAEASRDASIPCQQPRPFGVPVSVDKDVHIPFTNGSYTFASMYHRQGGVPGTFANRDFPPSLLHLHPQFAPPNLDCTPISMLNHSGVGAFRPFASTEDRESYQSAFTPAKRLKNCHDTESPHLRFSDADGKEYDFGTQLPSSSPGSLKVDDTGKKIFAVSGLISDREASSSPEDRNDRCKKKAAALFDSQAPICPICQVLLRPSELQEHMEQELEQLAQLPSSKNSLLKDAMAPGTPKSLLLSASIKREGESPTASPHSSATDDLHHSDRYQTFLRVRANRQTRLNARIGKMKRRKQDEGQREGSCMAEDDAVDIEHENNNRFEEYEWCGQKRIRATTLLEGGFRGSGFIMCSGKENPDSDADLDVDGDDTLEYGKPQYTEADVIPCTGEEPGEAKEREALRGAVLNGGPPSTRITPEFSKWASDEMPSTSNGESSKQEAMQKTCKNSDIEKITEDSAVTTFEALKARVRELERQLSRGDRYKCLICMDSYSMPLTSIQCWHVHCEECWLRTLGAKKLCPQCNTITAPGDLRRIYL
